Test results published in PubChem BioAssay AID651815 (National Center for Advancing Translational Sciences (NCATS), 2012).
In all, about 2,100 compounds went through this assay and about 1,100 (52%) were called active. The set was probably picked from earlier hits. Inconclusive means that the source gave no clear call. Such entries were picked first, then a sample of the others. Calls come from the whole dose curve; as a rule, active = well fitted inhibition curve with a large enough effect; inconclusive = small, poorly fitted or top-dose-only effect; inactive = no such curve, though single readings can be large or run the other way. No potency is given beside an inconclusive call; the fits are too rough.

The compounds below were run against DNA dC->dU-editing enzyme APOBEC-3F (Homo sapiens) (UniProt Q8IUX4) (assay: qHTS for inhibitors of Vif-A3F interactions: Cherry picks counterscreen). Conditions: HeLa A3F-eYFP/Vif cells, eYFP fluorescence, 24 h; series mostly up to 46.1 µM; activity, negative = inhibitor: at the top concentration.
Method in brief: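 HeLa cells stably expressing A3F-eYFP and Vif, cultured overnight, then treated 24 h at 37 degrees C with compounds at several concentrations; yellow fluorescence (488 nm Ex/500-530 nm Em) imaged on Acumen; MG132 positive control.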
% is set by controls: 0 for no effect and ±100 for the full control effect; potency is the fitted concentration of half-maximal effect; tags give direction and shape of the fitted curve.
Note: nearly all actives have a fitted effect of over 65% in size.

Chain of UniProt Q8IUX4 (Q8IUX4 whole entry, looked up): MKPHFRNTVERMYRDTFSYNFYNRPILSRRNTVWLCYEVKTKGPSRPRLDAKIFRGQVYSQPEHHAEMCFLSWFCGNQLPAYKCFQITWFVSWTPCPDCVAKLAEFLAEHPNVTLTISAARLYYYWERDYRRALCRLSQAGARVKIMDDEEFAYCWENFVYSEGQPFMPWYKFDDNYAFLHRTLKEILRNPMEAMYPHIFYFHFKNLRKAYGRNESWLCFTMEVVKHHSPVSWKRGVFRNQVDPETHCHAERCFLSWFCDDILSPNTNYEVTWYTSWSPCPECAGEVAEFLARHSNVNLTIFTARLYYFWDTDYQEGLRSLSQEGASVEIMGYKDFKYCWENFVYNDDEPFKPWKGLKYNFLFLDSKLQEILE

**Q.** `COc1ccc(OC)c(Nc2nc(-c3ccncc3)nc3ccccc23)c1` was tested. Which “activity, negative = inhibitor” value did it give?
**A.** inactive: -24.7% [at 36.9 µM]

**Q.** `N#Cc1ccc(/C=C\c2nccc3c2[nH]c2ccccc23)cc1` was tested. Which Potency did it give?
**A.** active: 15.8 µM

**Q.** How did the Potency turn out when `Cc1sc(NC(=O)c2sc3nc4c(C)cccc4cc3c2N)c(C#N)c1C` was run?
**A.** inconclusive [inhibitor, partial curve]

**Q.** For `COc1ccc(/C=C2\Oc3cc(OC(=O)N4CCOCC4)ccc3C2=O)c(OC)c1`, which “activity, negative = inhibitor” value is on record?
**A.** inactive: -8.95%

**Q.** `Cc1ccc(O)c(Nc2c3ccccc3nc3ccccc23)c1` was tested. Which “activity, negative = inhibitor” value did it give?
**A.** inactive: -4.44%

**Q.** Which Potency does the source give for `C=CCc1c(C)nc(-c2ccccc2)nc1Nc1ccccc1O` here?
**A.** inconclusive [inhibitor, single point]

**Q.** Which “activity, negative = inhibitor” value does the source give for `CCS(=O)(=O)C1=NN2C(=N)/C(=C\c3ccc(SCc4ccco4)o3)C(=O)N=C2S1` here?
**A.** inactive: 11.1%

**Q.** `Cc1ccc([N+](=O)[O-])cc1-c1ccc(/C=C(\C#N)c2[nH]nc(N)c2C#N)o1` was tested. Which Potency did it give?
**A.** inconclusive [inhibitor, single point]

**Q.** `Cc1c(CCCl)c(Cl)n2c(nc3ccccc32)c1C#N` was tested. Which Potency did it give?
**A.** inconclusive [inhibitor, full curve]

**Q.** For `CC(C)NC(=S)N/N=C1\CCCCc2ccccc21`, which “activity, negative = inhibitor” value is on record?
**A.** inactive: 1.48%

**Q.** For `O=C(NC(=S)Nc1ccc(N2CCCCC2)c(Cl)c1)c1ccc2c(c1)OCCO2`, which “activity, negative = inhibitor” value is on record?
**A.** inactive: -28.4%

**Q.** With `COC(=O)c1sc(-c2cccs2)cc1NC(=O)/C=C/C(=O)O` as the compound, how does the Potency read?
**A.** inconclusive [inhibitor, single point]

**Q.** `CCCCCCn1c(=O)[nH]c2nc3cc(N)ccc3nc2c1=O` was tested. Which Potency did it give?
**A.** inconclusive [inhibitor, single point]

**Q.** With `CC(C)CC(=O)NC(=S)N(Cc1ccccc1)Cc1ccccc1` as the compound, how does the “activity, negative = inhibitor” value read?
**A.** inactive: -4.37%

**Q.** Which “activity, negative = inhibitor” value does the source give for `COc1cc(CNCCSc2nnnn2C)ccc1OCc1c(F)cccc1Cl` here?
**A.** inactive: 4.43%

**Q.** With `CSc1ccccc1NC(=O)COC(=O)/C=C/c1ccco1` as the compound, how does the “activity, negative = inhibitor” value read?
**A.** inactive: 4.47%

**Q.** Which Potency does the source give for `COc1ccc(C(=S)N2CCN(c3cccc(Cl)c3)CC2)c(OC)c1` here?
**A.** inconclusive [inhibitor, full curve]

**Q.** For `COc1ccc(NC(=O)c2sc3nc(C(F)(F)F)cc(C)c3c2N)cc1OC`, which Potency is on record?
**A.** inconclusive [inhibitor, single point]

**Q.** How did the Potency turn out when `COc1ccc(OC)c(S(=O)(=O)N/N=C\c2cn(CC(N)=O)c3ccccc23)c1` was run?
**A.** inconclusive [inhibitor, single point]

**Q.** For `O=C(NCc1ccccc1)c1cccc2c1C(=O)c1ccc(/C=C/c3ccccc3)cc1S2(=O)=O`, which Potency is on record?
**A.** inconclusive [inhibitor, single point]

**Q.** For `CC1=C/C(=C\C=C(C#N)C#N)N(C)c2ccccc21`, which Potency is on record?
**A.** active: 3.26 µM

**Q.** For `CCn1c2ccccc2c2cc(NC(=O)c3ccc(=O)oc3)ccc21`, which Potency is on record?
**A.** inconclusive [inhibitor, single point]

**Q.** How did the Potency turn out when `CCOC(=O)C1=C(CSc2nc(-c3ccccc3)ccc2C#N)OC(N)=C(C#N)C1c1cccnc1` (stereo not drawn) was run?
**A.** inconclusive [inhibitor, single point]

**Q.** With `CC1C/C(=C/c2cccs2)C(=O)/C(=C/c2cccs2)C1` (stereo not drawn) as the compound, how does the Potency read?
**A.** inconclusive [inhibitor, single point]

**Q.** How did the Potency turn out when `N#CC1=C(N)Oc2cc(N)ccc2C1c1cccc(F)c1` (stereo not drawn) was run?
**A.** active: 2.5 µM

**Q.** How did the Potency turn out when `CCc1ccc(C2=NN(S(C)(=O)=O)C(c3cccs3)C2)cc1` (stereo not drawn) was run?
**A.** inconclusive [inhibitor, single point]

**Q.** For `COc1ccc2c(C)cc(SCC(=O)N3CCOCC3)nc2c1`, which Potency is on record?
**A.** inconclusive [inhibitor, single point]

**Q.** For `C#CCSc1nc(-c2cccs2)ccc1C#N`, which Potency is on record?
**A.** inconclusive [inhibitor, partial curve]

**Q.** With `COc1cnc(-c2ccccn2)nc1Oc1ccc(F)cc1F` as the compound, how does the “activity, negative = inhibitor” value read?
**A.** inactive: -2.85%

**Q.** `CN1CCCc2cc(/C=C/c3ccnc4ccccc34)ccc21` was tested. Which Potency did it give?
**A.** active: 2.59 µM

**Q.** Which Potency does the source give for `Cc1cn2c(N)c(C=C3C=C(Cl)C(=O)C(Cl)=C3)c(=O)nc2s1` here?
**A.** inconclusive [inhibitor, single point]

**Q.** For `CCOC(=O)CCSc1nc(C)cc(C(F)(F)F)c1C#N`, which Potency is on record?
**A.** inconclusive [inhibitor, single point]

**Q.** For `O=C1c2cccc3c([N+](=O)[O-])ccc(c23)C(=O)N1c1ccccn1`, which “activity, negative = inhibitor” value is on record?
**A.** inactive: 18.3%

**Q.** Which “activity, negative = inhibitor” value does the source give for `Cc1ccccc1NC(=O)CSC1=C(C#N)C(c2ccsc2)CC(=O)N1` (stereo not drawn) here?
**A.** inactive: -26.6% [at 36.9 µM]

**Q.** `CN1C(=O)/C(=C/c2ccccc2OCc2ccc(F)cc2)N(C)C1=S` was tested. Which “activity, negative = inhibitor” value did it give?
**A.** inactive: -14.7%

**Q.** How did the “activity, negative = inhibitor” value turn out when `COc1ccccc1-c1cc(C(=O)NN)[nH]n1` was run?
**A.** inactive: -2.26% [at 36.9 µM]

**Q.** How did the Potency turn out when `CC(=O)c1cccc(-c2ccnc3c2CC(C(=O)Nc2ccc4c(c2)OCO4)O3)c1` (stereo not drawn) was run?
**A.** inconclusive [inhibitor, full curve]

**Q.** For `O=C(Nc1ccc(Cl)cn1)c1cccc(S(=O)(=O)N2CCCCCC2)c1`, which “activity, negative = inhibitor” value is on record?
**A.** inactive: 6.39% [at 36.9 µM]

**Q.** `Cc1ccc(NS(=O)(=O)c2cc([N+](=O)[O-])ccc2N/N=C/c2sc(N3CCOCC3)nc2-c2ccccc2)c(C)c1` was tested. Which Potency did it give?
**A.** inconclusive [inhibitor, full curve, poor fit]

**Q.** For `CCOc1ccc(Br)cc1C(=O)Nc1ccc(C(=O)NCC(C)C)cc1`, which Potency is on record?
**A.** inconclusive [inhibitor, single point]

**Q.** How did the Potency turn out when `COC(=O)C1=C(C)NC2=C(C(=O)CC(c3cccs3)C2)C1c1ccsc1` (stereo not drawn) was run?
**A.** inconclusive [inhibitor, single point]

**Q.** With `COc1ccccc1N1C(=O)S/C(=C\c2ccc(C)s2)C1=O` as the compound, how does the Potency read?
**A.** inconclusive [inhibitor, single point]

**Q.** `c1ccc2c(-c3nc4ccccc4[nH]3)cccc2c1` was tested. Which Potency did it give?
**A.** inconclusive [inhibitor, full curve]

**Q.** How did the Potency turn out when `O=c1c2ccccc2c(C=Nc2cccc(O)c2)c(O)n1-c1ccc2c(c1)OCO2` was run?
**A.** inconclusive [inhibitor, single point]

**Q.** `Oc1ccc(C=NNC(=S)Nc2ccc(F)cc2)c(O)c1` was tested. Which “activity, negative = inhibitor” value did it give?
**A.** inactive: -1.61%

**Q.** Which Potency does the source give for `Cc1ccc(NC(=O)c2ccc(NCc3ccco3)c([N+](=O)[O-])c2)cc1Cl` here?
**A.** inconclusive [inhibitor, single point]

**Q.** `CC(C)n1cc(NC(=O)c2cc(-c3ccccc3)on2)cn1` was tested. Which Potency did it give?
**A.** active: 3.53 µM

**Q.** For `O=C(NCc1cc(C(F)(F)F)ccc1Cl)c1cccc2c1C(=O)c1ccc(N3CCOCC3)cc1S2(=O)=O`, which Potency is on record?
**A.** active: 18.4 µM
